Assay results as given in paper PMC6212790.
The list shows a part of the results. At the low end of the ranking the order means little.

These sequences were tested against T1, GST-Rok-C97-191 (UniProt O34857) (assay: protein binding microarray). Details: Rok is a gene silencer of Bacillus subtilis; high values mean tight binding; most listed sequences are background and not binding sites; double strand, one strand shown.
T1 sequence: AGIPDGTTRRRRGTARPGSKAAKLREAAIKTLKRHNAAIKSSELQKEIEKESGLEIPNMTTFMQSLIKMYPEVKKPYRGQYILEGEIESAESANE
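Also: rank score from −0.5 (least bound) to 0.5 (best bound).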

Sequence	binding signal
ACTTCTGC	0.109 E-score
ACCGATCC	-0.162 E-score
TGTTACAA	0.217 E-score
CTTGCCTC	-0.142 E-score
AAATGAAT	0.0225 E-score
GCTCTGCC	-0.296 E-score
TAGTTCAA	0.117 E-score
AGCGTGAG	-0.156 E-score
TATCTGAA	0.169 E-score
TCGGATAA	0.0115 E-score
CAGCTAGG	-0.173 E-score
AACCGGTT	0.0733 E-score
GTCATTAA	-0.0908 E-score
GCCTGCTA	-0.111 E-score
GTTCTTTA	-0.144 E-score
TGAATGCA	-0.0484 E-score
AAGTGCCC	-0.158 E-score
ACGGTGGA	-0.0421 E-score
CACTGTGC	-0.0426 E-score
GCGTCATA	-0.12 E-score
AGGCCTAA	-0.0119 E-score
CGCAGACG	-0.227 E-score
AGTTACCG	0.194 E-score
AAAGCCGA	-0.00482 E-score
CTCTTTGC	-0.217 E-score

Sequence	binding signal
CTGTAAGC	-0.175 E-score
CGACTCTA	-0.0898 E-score
GGGATTAC	-0.0922 E-score
ATTTTATG	0.229 E-score
GAGCGCCC	-0.414 E-score
ATTAGGCA	-0.0234 E-score
CTATTTTA	0.302 E-score
CTTTCAAC	-0.0594 E-score
GCTAGTAA	0.286 E-score
AAATCATC	-0.112 E-score
TATACACA	0.0896 E-score
TACTAGGA	0.115 E-score
CATCATCC	-0.118 E-score
CGGTATGA	0.0776 E-score
ACGGGGAA	0.0307 E-score
CGTGTCAG	-0.279 E-score
CCGGCATA	-0.00274 E-score
AATTCTGT	0.0907 E-score
CCGCTTCG	-0.312 E-score
TGTTGCAA	0.227 E-score
TAATCATA	0.161 E-score
TCTCGCAA	-0.00541 E-score
CCCAGCTC	-0.258 E-score
GGCGGGTA	-0.246 E-score
ATGGGGGA	-0.256 E-score

Sequence	binding signal
GATTGGCC	-0.179 E-score
CGGGCCGC	-0.334 E-score
ATACACTA	0.197 E-score
AACGACGA	-0.121 E-score
ATACGCGG	-0.163 E-score
AGGCTACT	-0.109 E-score
ATTCTCGG	0.0178 E-score
CGCAAGTA	0.0722 E-score
GTGGGAAC	-0.153 E-score
GCATCACA	0.0845 E-score
TCGTCTCA	-0.21 E-score
CGTCTGAG	-0.223 E-score
CGAGGACG	-0.358 E-score
AGCAAGTA	0.167 E-score
CTATTGCC	0.0125 E-score
GCGTGAAA	-0.111 E-score
TAGTATAA	0.413 E-score
GTACAGGA	-0.12 E-score
GGCGCGGA	-0.261 E-score
GCTTATGA	-0.145 E-score
AGAATGTG	0.00607 E-score
AGGATACA	-0.014 E-score
AAACTAAT	0.36 E-score
ATTGGGTC	-0.0338 E-score
AACTTAAA	-0.0182 E-score

Sequence	binding signal
ACGTAAAT	0.228 E-score
CGCCTACA	0.0604 E-score
CCGGGAGC	-0.267 E-score
AAGGTCGA	0.0853 E-score
CGATTATC	0.0925 E-score
AGCGCCAC	-0.135 E-score
CAGTCGGC	-0.213 E-score
GCGTTGAC	-0.0864 E-score
CACTGAAC	0.0486 E-score
AAAATCAC	0.0515 E-score
CCATCTTA	0.037 E-score
TACACGCA	0.182 E-score
CACGATAA	0.0227 E-score
AACCGCTC	-0.214 E-score
GAAAAGGC	-0.139 E-score
GGCACCAC	-0.0641 E-score
GTCTGAAA	0.11 E-score
ACCTCAGT	-0.0743 E-score
ACGACGGC	-0.214 E-score
CATTCGAC	-0.047 E-score
ACGGATTA	-0.0723 E-score
ACATGTTC	0.0749 E-score
CACCACAG	-0.114 E-score
TCTTTTAA	0.103 E-score
CCGGGTGA	-0.0695 E-score

Sequence	binding signal
AAAACTCT	0.152 E-score
ATGGCAGG	-0.221 E-score
CTAGTGAC	0.101 E-score
AAGGCGAT	-0.0931 E-score
AGCGGGAC	-0.306 E-score
GACCGTAC	-0.00807 E-score
AGACGGCC	0.00816 E-score
GCAATAAA	0.0872 E-score
AATCCAAT	0.0647 E-score
GCACTCAA	-0.0906 E-score
CTTTTCTA	0.303 E-score
CATTCTTA	0.0205 E-score
AGGGGACT	-0.157 E-score
ACCAGTTC	-0.0888 E-score
CGTGCACA	0.056 E-score
GCCAAGCC	-0.0184 E-score
AGGTGTAC	0.03 E-score
AGGTCTGA	-0.158 E-score
AACATCGG	-0.133 E-score
ATCTCCTA	0.0362 E-score
AAATGCAT	0.252 E-score
CGACTGCA	-0.131 E-score
GAACTAGA	0.335 E-score
GTCTCGTA	0.00987 E-score
CTCCTTGA	-0.109 E-score

Sequence	binding signal
CCCAGCTA	-0.0297 E-score
ATGTAGAG	0.246 E-score
CACAAATA	0.243 E-score
ACGTCATC	-0.0226 E-score
GATATTTA	0.328 E-score
ATGTCATG	-0.00603 E-score
CGTGGTAC	-0.0859 E-score
AGTAAAAA	0.341 E-score
GCACATCC	-0.127 E-score
AAACCCGG	0.00206 E-score
CTGTCAAA	-0.122 E-score
ACCACATC	-0.0738 E-score
CGCCCTAG	-0.107 E-score
ACTCTCCT	-0.0534 E-score
ATGGCGAA	0.00598 E-score
TATTTAGA	0.0799 E-score
ATAGAATC	0.274 E-score
GCACCCTA	0.17 E-score
AGAGAATA	0.131 E-score
GAGATGAC	-0.226 E-score
CCACTACG	0.0791 E-score
CGACCTAC	-0.0743 E-score
ACACGTCT	-0.0751 E-score
ATGGACAA	-0.13 E-score
ATCTTTTG	-0.131 E-score

Sequence	binding signal
ACCTGACT	-0.186 E-score
ATTCGTCA	0.0355 E-score
GATGCGCC	-0.213 E-score
AAAGACCC	-0.00616 E-score
CCTAGTCA	-0.0304 E-score
ATTTCGCA	0.195 E-score
ATCTTACG	0.129 E-score
CATTCGAG	-0.0543 E-score
CTATCAAG	0.0537 E-score
TATTGCCA	0.149 E-score
CATGTCAG	0.0755 E-score
CAGTATGG	-0.0654 E-score
CAAAAAAG	-0.0716 E-score
CGAAATTA	0.31 E-score
CCGACCTC	-0.237 E-score
ATAACTTG	0.298 E-score
CCGGTCTC	-0.245 E-score
AAGAATAT	0.135 E-score
AAATCCAT	0.189 E-score
GGTCGCAA	0.0362 E-score
CGAAGTGC	-0.165 E-score
CGTAACTC	0.0679 E-score
